Test results published in PubChem BioAssay AID463173 (ICCB-Longwood Screening Facility, Harvard Medical School, 2010).
Among all 52,000 compounds or so, about 1,700 (3.3%) were called active. Rule as the data show it: active = survival mostly below about 52% (no sharp cut-off); inactive = mostly above about 56%. The list shows a part of the results.

These compounds were tested on Wild type (assay: S. aureus survival, RN4220 and DeltatarO strains – OD600, teichoic acid synthesis inhibitors, primary screen (AID 463173)). Settings: S. aureus RN4220 wild type/DeltatarO growth, OD600, 18 h, stronger effect = lower value, screened at 18.75 µg/mL (by protocol).

SMILES | survival
CSCCC(NS(=O)(=O)c1ccc2c(c1)oc(=O)n2C)C(=O)N1CCN(c2cc(Cl)ccc2C)CC1 (stereo not drawn) | inactive: 59%
Cc1cccc(N2CCN(C(=O)c3nn(C)c4c3CSc3ccccc3-4)CC2C)c1 (stereo not drawn) | inactive: 87%
CCN1CCN(Cc2c(O)ccc3oc(C)c(C(=O)Nc4ccc(OC)c(Cl)c4)c23)CC1 | inactive: 88%
CCOC(=O)c1ccccc1NC(=O)CSc1nc2ncccc2o1 | inactive: 71%
CCCC1(C(=O)OC)NC(c2ccc(OC)c(OC)c2)C2C(=O)N(c3ccc4c(c3)OCO4)C(=O)C21 (stereo not drawn) | inactive: 100%
COc1ccc2c(c1)c1c(c(=O)n(-c3cccc(C)c3)c(=O)n1CC(=O)Nc1c(C)cc(C)cc1C)n2C | inactive: 139%
Cc1cc(C)cc(NC(=O)CN2C(=O)COc3ccc(S(=O)(=O)Nc4ccccc4)cc32)c1 | inactive: 98%
Cc1cn(C)c(CC(=O)NCc2ccc(F)cc2)c1C(=O)O | inactive: 78%
CCc1cccc(NC(=O)CNS(=O)(=O)c2ccc3nc(C)sc3c2)c1 | inactive: 72%
Cc1ccc(CSC2=Nc3ccccc3C3=NC(CC(=O)NC4CCCCC4)C(=O)N23)c(C)c1 (stereo not drawn) | inactive: 76%
CCC(C)NC(=O)c1cn(CC)c2ccc(S(=O)(=O)N3CCCCC3)cc2c1=O (stereo not drawn) | inactive: 79%
Cc1ccc2nc(-c3ccncc3)c(Nc3ccccc3C)n2c1 | inactive: 101%
CC1=C(c2ccc(C)cc2)S(=O)(=O)N=C1N1CCN(c2ccccc2)CC1 | inactive: 85%
CN(Cc1ccccc1)S(=O)(=O)c1ccc(F)c(C(=O)Nc2ccccc2C(F)(F)F)c1 | active: -6%
Cc1ccc(C(NC(=O)Cc2cccs2)C(=O)Nc2ccc(C(C)C)cc2)cc1 (stereo not drawn) | inactive: 82%
Cc1cccc(-c2nc3c4ccccc4nc(NCc4ccccc4Cl)n3n2)c1 | inactive: 163%
Cc1cc(Nc2cccc(C(F)(F)F)c2)ncn1 | inactive: 80%
CCn1cc(C(=O)NCc2ccccc2)c(=O)c2cc(S(=O)(=O)N3CCCCC3)ccc21 | inactive: 84%
Cc1ccc(NS(=O)(=O)c2ccc3c4c(cccc24)C(=O)N3)c(C)c1 | inactive: 84%
O=C1OCc2c1[nH]c(=O)[nH]c2=O | inactive: 102%
Nc1n[nH]c2nc(C(F)(F)F)cc(=O)n12 | inactive: 109%
CNS(=O)(=O)c1cn(CC(=O)N2CCN(c3ccc(OC)cc3)CC2)cc1S(=O)(=O)NC | inactive: 69%

SMILES | survival
O=C(COc1ccccc1)N(Cc1cccnc1)c1nc2ccc(Cl)cc2s1 | inactive: 82%
O=C(Nc1ccc(N2CCC(N3CCCCC3)CC2)c(C(=O)O)c1)c1ccccc1 | inactive: 70%
CC(C)NC(=O)c1ccc(Cn2c(=O)c3cccn3c3cccnc32)cc1 | inactive: 84%
COc1ccc(CC(=O)NC2CC(=O)N(c3ccc4c(c3)OCCO4)C2)cc1 (stereo not drawn) | inactive: 136%
CCOCCCn1c(=N)c(S(=O)(=O)c2ccc(C)cc2)cc2c(=O)n3ccccc3nc21 | inactive: 125%
CCOC(=O)c1c(NC(=O)C(C)Sc2cn(CCNC(=O)c3ccc(OC)c(OC)c3)c3ccccc23)sc2c1CCC2 (stereo not drawn) | inactive: 151%
Nc1c(C(=O)Nc2cccc(Cl)c2)sc2nc3c(cc12)CN(Cc1ccccc1)CC3 | inactive: 65%
O=C(CSc1nncn2c1cc1sccc12)Nc1ccccc1C(F)(F)F | inactive: 111%
O=C(NCCC1=CCCCC1)c1ccc2c(c1)N(Cc1ccc(F)cc1)C(=O)c1ccccc1S2(=O)=O | inactive: 145%
CCn1c(=Nc2ccc(N3CCOCC3)cc2)ccc2ccccc21 | inactive: 100%
COc1ccc2nc3sc(C(=O)Nc4cc(Cl)c(OC)cc4OC)cc3cc2c1 | inactive: 87%
Cc1c(NC(=O)c2cc(-c3cccc(Cl)c3)on2)c(=O)n(-c2ccccc2)n1C | inactive: 78%
CCOCCCn1c(=N)c(C(=O)NCc2ccco2)cc2c(=O)n3ccccc3nc21 | inactive: 74%
COCCCNc1nc2c(-c3ccccc3)nnn2c2ccccc12 | inactive: 85%
CCOC(=O)c1c(C)oc2nc(C)nc(NCc3ccc(C)cc3)c12 | inactive: 71%
CCN1CCN(Cc2c(O)ccc3c(=O)c(Oc4ccccc4Cl)c(C(F)(F)F)oc23)CC1 | inactive: 74%
CC(NC(=O)c1ccc(-c2ccccc2)cc1)C(=O)O (stereo not drawn) | inactive: 92%
Cc1ccccc1C(=O)NCC(c1cccnc1)N1CCc2ccccc21 (stereo not drawn) | inactive: 81%
Cc1cccc(N2CCN(S(=O)(=O)c3ccc4oc(=O)c5ncn(C)c5c4c3)CC2C)c1 (stereo not drawn) | inactive: 73%
COc1ccc(N(C(=O)COc2c(C)cccc2C)S(=O)(=O)c2ccc(Cl)cc2)cc1 | inactive: 65%
COC(=O)c1ccccc1NC(=O)c1cc2nc(-c3ccccc3)cc(-c3ccccc3)n2n1 | inactive: 69%
CCOC(=O)c1c(C)sc(-c2c(-c3ccc4c(c3)OCCO4)[nH]c3c2c(=O)[nH]c(=O)n3C)c1O | inactive: 106%

SMILES | survival
COc1ccc(NC(=O)C2(c3cccs3)CCOCC2)cc1Cl | inactive: 90%
Cc1ccc(-c2nnc(Nc3ccc(O)cc3)c3ccccc23)cc1S(=O)(=O)NCc1nc2ccccc2[nH]1 | inactive: 92%
O=c1oc2ccccc2n1CN1CCCCC1 | inactive: 105%
COc1cccc(N2CCN(C(=O)c3c(C)oc4ncnc(N5CCCCC5)c34)CC2)c1 | inactive: 133%
CC(C)CN(CCCNC(=O)CN1C(=O)COc2ccc(S(=O)(=O)N3CCCCCC3)cc21)CC(C)C | inactive: 124%
COc1cc(NC(=O)CSc2nc(C)c(C(=O)Nc3ccccc3)c(-c3ccc(OC)c(OC)c3)c2C#N)c(OC)cc1Cl | inactive: 75%
COc1ccc(N2CC3=C(C2=O)C(c2ccc(Br)cc2)NC(=O)N3C)cc1 (stereo not drawn) | inactive: 156%
Cc1cc(Nc2sc(C(=O)c3ccc(F)cc3)c(N)c2C(=O)Nc2ccc(F)cc2)ccc1Cl | inactive: 85%
Cc1ccc(Cl)cc1N1CCN(CCCNc2ncnc3onc(-c4ccc(F)cc4)c23)CC1 | inactive: 87%
Cc1ccoc1C(=O)Nc1ccccc1C(=O)O | inactive: 102%
COc1cccc(-n2c(=O)c3sc4ccccc4c3n(CC(=O)Nc3ccc(F)cc3F)c2=O)c1 | inactive: 78%
O=S(=O)(NC1CC1)c1cccs1 | inactive: 111%
CN1C(=O)/C(=C/C=C2\SCCN2C)OC1=S | inactive: 110%
COc1ccc2nc(NC(=O)c3nc(SCc4ccccc4F)ncc3Cl)sc2c1 | inactive: 90%
Cc1cc(C)n(-c2nc3cc(Cl)ccc3nc2Nc2ccc(CC(=O)O)cc2)n1 | inactive: 131%
CCCCn1c(NCc2cc(Br)ccc2O)nc2ccccc21 | inactive: 69%
NC(=O)Cc1nnc(-c2ccccc2)c(-c2ccccc2)n1 | inactive: 111%
COc1ccccc1CNC(=O)C1CCN(S(=O)(=O)c2ccc3c(ccn3C)c2)CC1 | inactive: 131%
CCNC(=O)C1CCN(c2nnc(C)c3c(C)n(-c4ccc(OC)cc4)nc23)CC1 | inactive: 99%
Cc1cccc(NC(c2ccccc2C)c2ccc3ccc(C)nc3c2O)n1 (stereo not drawn) | active: -3%
COC(=O)c1c(-c2cccs2)csc1NC(=O)c1ccc(OC)c(OC)c1 | inactive: 75%
Cc1nnc(SCc2ccc(Cl)cc2Cl)o1 | inactive: 118%

SMILES | survival
COc1ccc(S(=O)(=O)c2c(SC)nn(CC(=O)Nc3cccc(C)c3C)c2N)cc1 | inactive: 81%
Cc1ccc2c(c1)NC(=O)c1cccnc1O2 | inactive: 74%
Cc1ccc(-c2nc(CS(=O)(=O)CC(=O)NCCc3ccccc3)c(C)o2)cc1 | inactive: 99%
COc1ccc(CNC(=O)Cn2nc(N3CCN(c4ccccc4)CC3)ccc2=O)c(OC)c1 | active: -4%
O=C(Nc1ccc(OCc2cc(=O)n3ccccc3n2)cc1)c1ccccc1Cl | inactive: 75%
CCc1nnc(NC(=O)c2c(O)c3ccccc3[nH]c2=O)s1 | inactive: 102%
CC1=C(C(=O)Nc2ccccc2)C(c2ccncc2)n2nc(SCc3ccccc3F)nc2N1 (stereo not drawn) | inactive: 106%
CCC(C)Nc1oc(-c2ccc(COc3ccc(Cl)cc3)o2)nc1C#N (stereo not drawn) | inactive: 84%
CCn1cc(C(=O)NCc2ccc(C)cc2)c(=O)c2cc(S(=O)(=O)N(C)C3CCCCC3)ccc21 | inactive: 83%
CCc1ccc(CN(Cc2ccco2)C(=O)COc2ccc(Cl)c(C)c2)cc1 | inactive: 74%
O=C(NC1CC1)C1CCN(C(=O)NCc2ccccc2)CC1 | inactive: 96%
CCC(C)NC(=O)CSc1nc2c(sc3ccccc32)c(=O)n1CCc1ccc(OC)c(OC)c1 (stereo not drawn) | inactive: 87%
CCN(CC)c1nc2c(S(=O)(=O)c3cccc(Cl)c3)nnn2c2ccsc12 | inactive: 68%
Cc1cccc(OCC(O)Cn2c(=N)n(CCN3CCCCC3)c3ccccc32)c1 (stereo not drawn) | inactive: 91%
CCN1CCN(C(=O)Cn2c(-c3cccs3)cc3ccccc32)CC1 | inactive: 73%
COc1nc(-c2ccccc2)ccc1-c1noc(-c2ccccc2Br)n1 | active: -2%
O=C(CN1CCC(n2nnc3ccccc32)CC1)N(C1CCCCC1)C1CCCCC1 | inactive: 115%
COc1cccc(OCc2cc(=O)n3c(-c4ccccc4)csc3n2)c1 | inactive: 73%
COC(=O)c1cccc(NC(=O)c2nsc3ccccc23)c1 | active: 0%
COc1ccc(CCNC(=O)c2ccc3c(c2)N(Cc2ccccc2F)C(=O)c2ccccc2S3=O)cc1OC (stereo not drawn) | inactive: 108%
COc1ccc(N2CCN(S(=O)(=O)CCNC(=O)COc3ccccc3F)CC2)cc1 | inactive: 68%
CCN(CC)S(=O)(=O)c1ccc(C(=O)NCCSc2c(-c3ccc(C)cc3)[nH]c3ccccc23)cc1 | inactive: 79%
